Results reported in the supplement of paper PMC11417369.
This is one part of the list.

System: PfHDP1 homeodomain (GST-tagged)
Assay: gcPBM binding intensity (ln(normalized median fluorescence intensity)); higher = stronger DNA binding
In short: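 An Agilent 4 × 180k array carrying primer-extended double-stranded 36-bp intergenic genomic probes and negative controls received GST-tagged P. falciparum DNA-binding domains expressed in E. coli, about 25 μg on average, for 1 h. The binding buffer contained 1× PBS, 1% milk, 0.2 mg/ml BSA, 0.5% salmon testes DNA and 0.03% Triton X-100. Binding intensity is the top Masliner-normalised natural-log median intensity across replicate spots of either probe orientation, read after Alexa488 anti-GST antibody staining and a 488 nm scan.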

Question: For “ATAAAATATATATGCACACACATATATATTTCATAC [CACACA_site3547]”, which “gcPBM binding intensity (ln)” value is on record?
Answer: 10.2

Question: How did the “gcPBM binding intensity (ln)” value turn out when “ACATAAAATAAATATACACACATATGTATATATTAT [CACACA_site3041]” was run?
Answer: 6.59

Question: How did the “gcPBM binding intensity (ln)” value turn out when “AAAAGAATTTAGAAGGCATGCACTTAAACATGGATA [TGCATGCA_site699]” was run?
Answer: 7.34

Question: How did the “gcPBM binding intensity (ln)” value turn out when “ATATATATATATATGTGTACTTATAAATATATCTGT [XGTACX_site4337]” was run?
Answer: 9.14

Question: How did the “gcPBM binding intensity (ln)” value turn out when “TATTTTTACAATGGTAGTACCATTTTGAATCTTTGT [XGTACX_site6092]” was run?
Answer: 6.14

Question: How did the “gcPBM binding intensity (ln)” value turn out when “CACCCGCACGTATTTGCACACATTGCCACGTAATTA [CACACA_site5786]” was run?
Answer: 10.7

Question: With “TGCTTATCCATTTCTACACACAAAAAAAAAAAAAAA [CACACA_site37]” as the sequence, how does the “gcPBM binding intensity (ln)” value read?
Answer: 6.36

Question: For “TATATATATTTATGTTGTACAAAATATTATTACGTA [XGTACX_site5384]”, which “gcPBM binding intensity (ln)” value is on record?
Answer: 6.6

Question: For “AAATGGGTTTATTTAACACACAAAAGAAAAAATATA [CACACA_site1938]”, which “gcPBM binding intensity (ln)” value is on record?
Answer: 6.57

Question: With “TTATATTATAACAAACGTACGAATTTTATACAAATA [XGTACX_site7258]” as the sequence, how does the “gcPBM binding intensity (ln)” value read?
Answer: 6.22

Question: With “ATGTGATGTTATATATGTACTTATTTTTTAATAAGG [XGTACX_site1786]” as the sequence, how does the “gcPBM binding intensity (ln)” value read?
Answer: 6.72

Question: For “AAAAATATTATGATGTTTATTAGAAAGGAAAAAACT [CACACA_negctrl_site1417]”, which “gcPBM binding intensity (ln)” value is on record?
Answer: 6.43

Question: Which “gcPBM binding intensity (ln)” value does the source give for “TTTTTATATTATTTAATGAGAAATAATTATAAACAA [CACACA_negctrl_site553]” here?
Answer: 6.27

Question: Which “gcPBM binding intensity (ln)” value does the source give for “TCGGTATCTGTTCAAAGTACACATTTGTATACAAAA [XGTACX_site1890]” here?
Answer: 6.63

Question: “ACACTATCTTAGATTTGTACATATTTATATATGTAT [XGTACX_site8739]” was tested. Which “gcPBM binding intensity (ln)” value did it give?
Answer: 6.16

Question: With “TATATAACATATGGGACACACATGCAACTGTTATAT [CACACA_site3792]” as the sequence, how does the “gcPBM binding intensity (ln)” value read?
Answer: 6.89

Question: Which “gcPBM binding intensity (ln)” value does the source give for “AACATATACACGAACACACACACATATATATATATA [CACACA_site502]” here?
Answer: 9.15

Question: How did the “gcPBM binding intensity (ln)” value turn out when “TAAAGAAAAAAATGTTGTACTTTATGAAACATATTT [XGTACX_site412]” was run?
Answer: 6.32

Question: “AAAACAAATGAGTACACACACATAAAAATTGAAAAT [CACACA_site199]” was tested. Which “gcPBM binding intensity (ln)” value did it give?
Answer: 6.55

Question: Which “gcPBM binding intensity (ln)” value does the source give for “GTATATATATATATATGTACATATTTAGAGTTCTGT [XGTACX_site5357]” here?
Answer: 6.63

Question: With “ATATTTACCATTGTATGTACATATATAAAATATATC [XGTACX_site3237]” as the sequence, how does the “gcPBM binding intensity (ln)” value read?
Answer: 6.62

Question: “ATATATATATATATATGTACATATATACATATATGT [XGTACX_site1521]” was tested. Which “gcPBM binding intensity (ln)” value did it give?
Answer: 9.32

Question: “AGTAGTCTGGAGAAGAGTACATAGTTTCTGGTAGCT [XGTACX_site2023]” was tested. Which “gcPBM binding intensity (ln)” value did it give?
Answer: 6.01

Question: “TTTTTTTTTTTTTGATGTACAATAATTAAAGAGTAA [XGTACX_site8403]” was tested. Which “gcPBM binding intensity (ln)” value did it give?
Answer: 6.2

Question: For “CGTAGCCCCACTAACACACACAAATATACTCAATCA [CACACA_site5587]”, which “gcPBM binding intensity (ln)” value is on record?
Answer: 6.76

Question: “AGTTTTTATTAAAACAAAATTTAATTATAACGTTGA [XGTACX_negctrl_site298]” was tested. Which “gcPBM binding intensity (ln)” value did it give?
Answer: 5.84

Question: How did the “gcPBM binding intensity (ln)” value turn out when “TTATATGTATGAACAAGTACATGCTATAATTATAAA [XGTACX_site1399]” was run?
Answer: 6.38

Question: Which “gcPBM binding intensity (ln)” value does the source give for “TATATATATATATACACACATACATATATATATTTG [CACACA_site857]” here?
Answer: 9.28

Question: For “TGAAATGGAAACAACTGTACAAAATAAATATGATAT [XGTACX_site1311]”, which “gcPBM binding intensity (ln)” value is on record?
Answer: 6.86

Question: Which “gcPBM binding intensity (ln)” value does the source give for “AATATTAACAATCGCACACATATTATTTTTCCAAAA [CACACA_site4982]” here?
Answer: 7.13

Question: How did the “gcPBM binding intensity (ln)” value turn out when “ATATAAATATAGCATACACACAAAAAAATAAAATAA [CACACA_site2333]” was run?
Answer: 6.86

Question: “CAACATTTGAAACACACACACATACAAACAAACAAA [CACACA_site3306]” was tested. Which “gcPBM binding intensity (ln)” value did it give?
Answer: 6.91

Question: With “TTTTTTTTTTTTGTCACACATATTTGTATTAATCAT [CACACA_site5235]” as the sequence, how does the “gcPBM binding intensity (ln)” value read?
Answer: 6.56

Question: How did the “gcPBM binding intensity (ln)” value turn out when “AAAAAACTTTTAAGCACACACATAGATAATATAGAT [CACACA_site6835]” was run?
Answer: 6.93

Question: How did the “gcPBM binding intensity (ln)” value turn out when “TTTTTATTAAAATGTATTTTAGGAAAAAACAAAAAA [XGTACX_negctrl_site437]” was run?
Answer: 6.04

Question: For “TTCCCTTTTGTAAAATGTACATATATATTTAAACAA [XGTACX_site3263]”, which “gcPBM binding intensity (ln)” value is on record?
Answer: 6.8

Question: For “TAAGTTCCCTTTGAATGTACATATAATGAAAAGAAA [XGTACX_site826]”, which “gcPBM binding intensity (ln)” value is on record?
Answer: 6.66

Question: For “GAGATAAAATAAAACACACACATATATTTATATAAC [CACACA_site7098]”, which “gcPBM binding intensity (ln)” value is on record?
Answer: 6.55

Question: How did the “gcPBM binding intensity (ln)” value turn out when “TATTAATTTTTAAACATAATTTTTCGTATAATATAT [CACACA_negctrl_site762]” was run?
Answer: 6.09

Question: For “TTTACTTTCTTATTTTCACACATTTAAAAAAAAATT [CACACA_site5949]”, which “gcPBM binding intensity (ln)” value is on record?
Answer: 6.88

Question: Which “gcPBM binding intensity (ln)” value does the source give for “ACATCTAATTTGTATACACACAATAATAAATGGTGA [CACACA_site824]” here?
Answer: 6.61

Question: How did the “gcPBM binding intensity (ln)” value turn out when “TATATATATTTATAATGTACATATTTTTTTTTATTT [XGTACX_site4761]” was run?
Answer: 6.9

Question: “TTGTATATATGACTTTTTTATATTTCAATTTTGTGC [CACACA_negctrl_site296]” was tested. Which “gcPBM binding intensity (ln)” value did it give?
Answer: 6.15

Question: How did the “gcPBM binding intensity (ln)” value turn out when “AAATGAAATAAATGTAGTACACATATACAATATATA [XGTACX_site6951]” was run?
Answer: 6.53
